From the supplement of paper PMC10681739
Whole data set: some 4,000 sequences, median “arbitrary fluorescence units” near 830, cut for the highest 2% near 6,500. Most of the strongest results are missing from this list.

Biological target: RUNX1 (UniProt Q01196)
Test: RUNX1 binding intensity (PBM fluorescence), RUNX1 alone (arbitrary fluorescence units); higher = stronger binding
Conditions: RUNX1 concentration 2 nM; ETS1 concentration 0 nM
Procedure: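 gcPBM on 36-bp genomic-derived probes (partner site mutated) containing one RUNX1 site and no ETS1 site. Recombinant human RUNX1 (2 nM) was incubated alone or with ETS1 (25 nM) and detected by anti-RUNX1 antibody fluorescence. Values are medians over 4 replicate spots (not normalised). The probes sit in constant array flanks that are not printed.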
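Note: Full-length recombinant human RUNX1 bound to double-stranded DNA microarray spots, detected with an Alexa488-labelled secondary antibody after the anti-RUNX1 primary, read as scanned spot fluorescence.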

UniProt Q01196, sequence (Q01196 whole entry): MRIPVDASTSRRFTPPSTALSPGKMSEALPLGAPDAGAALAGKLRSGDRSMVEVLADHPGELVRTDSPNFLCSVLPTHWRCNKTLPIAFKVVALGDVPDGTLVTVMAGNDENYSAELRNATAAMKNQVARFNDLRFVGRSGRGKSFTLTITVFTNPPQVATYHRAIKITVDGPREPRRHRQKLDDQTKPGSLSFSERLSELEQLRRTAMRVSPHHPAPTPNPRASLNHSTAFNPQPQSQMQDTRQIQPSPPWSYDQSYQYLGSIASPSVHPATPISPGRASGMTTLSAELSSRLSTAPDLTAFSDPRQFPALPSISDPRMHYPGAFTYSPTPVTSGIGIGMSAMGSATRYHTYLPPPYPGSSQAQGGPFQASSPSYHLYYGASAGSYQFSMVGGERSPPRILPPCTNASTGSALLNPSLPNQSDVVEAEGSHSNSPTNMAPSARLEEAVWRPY

Sequence	RUNX1 binding intensity
TCCGCTTCTGTGGTCTGATCTTGCTGGGGCTGAACC	1090
CCCTGCCATTGCCTGCCCAATACCGCGTATGCAACT	1120
TGCGCTCTCATACGGGTCCTGCGGGCGCTGGCGGAG	684
GCCCACCCCCGCATTCTCGCCACCTCCTCCCCGGGA	1400
TGCGCCTGAAAGCAACGGCAAGGGCCGCAGCCAGCA	701
TTCTGAGGAGGTCCTTGGCTGAGGTAGGGCCGCAGA	694
GAGTACAGCAAATGCAAAGTAAAACCACAGTGAGAT	933
TTCAACAAGATATTGCTTTGTTACCACAGGCCCTTT	903
TGTGACCGCATCATGGGTAGACTCAATTCCTCTTGT	1890
AATTAAATTGTGGTAGATAGTAAAAGGACGTAGTTA	943
AGGAGTGAGGAATTGAGGCTGGCCTTGTGGGTGTGG	721
CTGAGCCGCAGACATGAAACCATGGATTCCTTCACA	839
ACATGAGGAGGGGGTAAGTGGATTTCCCTACCACAA	967
GGCCCCGAGCGCGCCGCAGACCGGAGGCGGGGAGTG	3840
ACTGCTTCTTGTGGTGAGGGACAGTAAACCAAGAGG	1050
TTTAAGGGCTGAAAGGCTTTAGCCGCAAAATGGCTT	742
AAGAGCATGCACCCGCAGAGACAGGCAGTGGCGGCT	816
CAGAAAGAGGACATGATGCGAGTCCACACCGCAGGC	755
GAACTACGTTTGCCGGCATGCACTGCGGGCCGCCGG	676
CCAACACGGAGACAAAAAATATCTCTCTACCACACT	1120
CTCCCAACTGCCGCGACGCAGGGAGCGCCCACAAAG	999

Sequence	RUNX1 binding intensity
CGTCAATTCCCACGCGACTGCCTGCGGGAAACATGG	826
ACTGTGGTCAGGGCTGCCCTGAGTCATGCTGCGGAG	1080
GCTTGTCTTACGGTTTCGTCGCCGCCGCAGGCGCAC	854
TGCAACGCTGGAATCGCGCAAACCGCCGGTGCACGT	689
GTGAGCTGTGGTGTGCAGCCCACCATCTCCTTTTCT	810
CCGCCACCGCAGCCTCAGCAGCAGTTGCCGTAAGAA	1480
TCAATGACAGCAAGTTTTTAAACCACATACGGCTAA	914
ATCGGCGGTCCCGCAGGTCCCGTATGTCGCGGACAG	713
CCTGCCTTGCGTATTCCAGGCAGAACCACAGAGAGG	864
GCGGACCGCACTCCCGGTCTCTGCCATGAAGAAGTA	1000
AGGGGCAGACCACAGCACCACCGAAAGTAGGGCTCA	771
TGGGGCCTTGTTACCACAGCACTTCATGTTTGCTTT	928
GTGGGGCAGGGTGTGCTTGCCTGGCTGCGGTTGGAC	971
ATCAGAGCGGAGATCTCAGTCTTGTGTGGGGACCTG	710
ACCGTTAACTCAACCACTAACATTTGCTGTTCTGGT	1070
GGACACATGTGGTGTTCTGCATGATGCAAAAGACCT	682
CCCCCGTACGGTTACAGAGGACACTTAAGTGGTTTG	800
CGTTTACTGTGGCTGCAGCTCTCCCCACCCACACAC	979
CGACGTCACTTTCGCTGGTTCAAGCACCGCGAGACT	656
GCCAACATGAAGCTGGAAGCCAACCGCACTGTGTGC	1070
CGTCCTGTCTGTGGCCTAGAAGCTTGCTGCCCCAGC	882

Sequence	RUNX1 binding intensity
AGCGGCTTGCTGCTGGGCTTTTGCACTCCCCACAAC	767
GGGCTGGCTGCTGCGGCAGCATTTCTTGACTTCTTC	679
AGGTTAAGTGTGGTTTCTCTTCATGATTCCACCCTG	1080
CTCCCCAGCCGCAAACCCCTCCTTACGGCTTTGCGC	1690
TTTGCGGCGCTAGTGCTCTGGTCACCGAAAGTCCCT	724
AGGCCGCCTACAGGGTGTTGGAAACCACAGGGCCCG	802
GGGGAACTCACCGCGCACTAAGAGCTGAACGTGAAC	699
GGCTGCGGCGGCTGGGGTGTTCCTCCGACTTTCGGA	881
TTGTGGTTGAGTTCCCTAGCTGACACCTCCTATATT	971
GACAAGAAACTAGCCACAAACCGGAGACGTTAAACC	1050
CTCCCCAGCATGAGGGTCCCAGGGCTTACCCGCGCC	790
GGAGGCTGTGGTGAGGAAAGAGGAGGTGACACTCCT	883
CAGCCGCCGACGTCCCCAGTAGTACCGCGCCGCTCC	911
ATAGAAACTACACGAAATACTGTGGTCAGGTTTTGA	800
CCACTGCTTTGTTGCCTCTCCAGACCGCGCATTTTG	1010
AGACTAGAGGCGGTTGTGTGAGTCAGAAAGAGGGGC	724
TCACACCCTGTAATGGTTTGCGCATACCACAGTTCT	786
AGCTGAGGTCGCGGTGCAGCAGCAGCAAACGTGATA	1010
AAAGGTGGTTGAGATCTATCCCACACCCTGTCTTTC	703
CAAGCCAACATGCTGACAGTTTAGAAACCACAGGAG	848
AGGTTCGTGGCACGAAAGTTTGTGGCAGCAAAGCCT	864
